In the supplement of paper PMC3334620:
Whole data set: some 33,000 sequences, median “E-score (-0.5 to 0.5)” near -0.01, cut for the highest 2% near 0.26. Some of the results follow.

What follows are sequences tested against Ste12 (UniProt P13574) (assay: PBM E-score (8-mer binding enrichment) (E-score (-0.5 to 0.5)); higher = stronger / more preferred TF binding; most listed sequences are background and not binding sites). Conditions: protein concentration: 200 nM; construct: GST-DNA-binding domain.
In short: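 Full-length yeast transcription factors or their DNA-binding domains, GST-tagged and expressed with PURExpress, were applied at about 100-200 nM to universal all-10-mer Agilent arrays. These arrays had been made double-stranded by primer extension on fresh or once-stripped slides. Detection used fluorescent anti-GST, normalisation used masliner, and E-scores for ungapped eight-base words pooled with reverse complements came from the Universal PBM Analysis Suite.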

Sequence	PBM E-score
GGCATGCC	0.0656
CTCATGCA	-0.0573
TTATTAAA	0.321
GTGAAGCA	-0.135
GCCAAAGA	-0.0779
AGAGCGGC	-0.0499
ATATGATC	0.162
ATTGCCAA	0.0958
CATAGGGC	0.0363
GACGGGTA	-0.203
ACAGGCAA	-0.0909
CATTCAGG	-0.0953
AATGTGGA	0.0541
GTAGACAC	-0.173
CAAGAGCG	0.102
ACCGATGC	-0.0639
ATGACTAA	0.1
CCTGGGGA	-0.15
CGGTGTGA	0.105
GAATGCGC	-0.0698
CAGGGACC	-0.285
CGTCGTTC	0.128
ACCAACCA	-0.026
ACAGGGAT	0.0276
ATCGAAGC	0.0146

Sequence	PBM E-score
CATGCGAG	-0.0124
GCTGAGCC	-0.0937
AGCTTCAG	-0.121
AAGAAAGG	0.0192
AGAAAATG	0.00032
GGTTGACA	0.0819
ACATAACT	0.203
CACACCGA	0.0546
CAGGTAAA	0.248
CCACCAAA	0.208
ACCGTATG	-0.219
ACCAAGAT	-0.0289
AGTGAAGG	0.0289
ACTCGGCG	0.0508
CTTGCTAA	-0.141
CCATCTAG	-0.115
CGTTTACA	-0.129
GATACTGA	0.0615
GCTGCTAC	-0.192
CCCATTAC	-0.0724
GGGCCGAC	-0.0218
CCGGGGCA	-0.0708
CCATTCAC	0.0416
AAAACCCT	0.213
CATGAGAA	0.18

Sequence	PBM E-score
CCTGGGTA	-0.0661
CTTCCGTC	-0.0523
AGCCCCAT	-0.00504
CCATGGGA	0.0303
GGATTACC	-0.0225
TGTGACAA	0.246
GATAGGAA	-0.0153
ACTTCAGC	-0.18
CTGCAATA	0.0764
GAGATACA	0.198
AGGATCAG	-0.016
TTCCAGAA	0.144
CTTACCCA	-0.0004
GACACGGA	-0.104
CCAATACG	-0.0466
AAGAAATT	0.149
GACCTACA	-0.161
AGAACGCT	-0.199
AAGCGTGG	-0.0252
CAGCGGGG	-0.0923
GATACAAA	0.134
AAAGACGT	-0.0117
CATGGTAG	-0.0843
CGTATCAC	0.113
CATTGTAC	-0.18

Sequence	PBM E-score
AAAACGGA	0.273
ATCCTAAG	-0.0279
GTTTCCTA	-0.0316
ACAGCAAC	0.0197
AAGCATAG	-0.152
ACAGTTGG	-0.0275
AATGTTTG	0.0124
GATGGAAC	-0.0989
GCCTAGTA	-0.0783
AGAGTTAC	-0.193
CATTATAA	0.12
GCAAATAC	0.0478
AATGCTCT	-0.0497
CCCTCCTA	0.156
ATATCGAG	0.064
ACGAAGCA	0.0643
GACTGAGC	-0.284
CATCATAC	0.118
ATTATCGA	-0.00808
GGGGTCGA	-0.00594
TGCTCAAA	0.0472
CCGCGGTA	0.178
CAACGAGA	0.0833
GCTCTTAC	-0.0495
CTGGCATA	0.0265

Sequence	PBM E-score
TCTAGTCA	-0.153
CACCACGC	-0.241
CAACGAGG	-0.114
CATAAGCC	0.0084
GAGGGTCA	-0.0263
GTACATGA	-0.0043
CAGCCAGA	-0.165
GAAAGCTC	-0.201
AAAAGAGT	0.058
AGAGAGGC	-0.312
CGTATGCA	0.0308
CCCATACG	-0.123
CAATATTG	-0.18
AGATTCAA	0.0763
AATTGTCA	0.235
CGGGGCCC	0.0497
TAGACAGA	-0.06
ACCGATTG	0.0921
AACATGCT	-0.0636
GTAACGAA	0.135
GTTCACAA	0.0531
CCTTAGAA	-0.0361
AAAATGCC	0.0197
CTTGATCC	0.0759
AAATGGTA	0.184

Sequence	PBM E-score
AACCCGTA	-0.155
CTGAGCGC	-0.157
AAGGAGTC	-0.224
CTAGCATA	-0.126
GATAACTA	0.0607
ATGGTTCA	0.177
CGGAAGGA	-0.0524
ACTGATAC	0.038
ATTGACAC	0.0216
AAATCTGC	0.0398
GCTCGCCC	0.0417
GAAGAGGC	-0.00355
ATCCAACC	-0.0776
AGCGTAGG	-0.118
GCGGTCCA	-0.265
GAGGTCAA	-0.0364
AAACCGGT	0.0579
CCGGTTCA	-0.122
CGTCCGGC	-0.0102
AGACGGCT	-0.178
GCCGGGTA	-0.0426
ACACTTGC	0.0744
GTATAACA	0.0311
GGCGTGAC	0.00226
GATGCCGA	0.12

Sequence	PBM E-score
GCTGGAGA	-0.152
AACATCCT	0.102
CGAGCTAA	0.00573
AGGCCTAT	-0.225
GCTAATGA	0.0764
GATGCAAA	0.0604
GCTGAGAC	0.209
ACATAAGC	-0.0117
GTGCACCA	-0.1
CCATGATA	0.153
AGAGACCT	-0.107
ATACTCAG	0.086
ATGGTCGC	0.0953
CATTGGCC	-0.212
GGATATAA	0.195
CCTACCCA	0.0661
GCTAGGAC	-0.165
TCCCTCAA	-0.116
ACGTGTCG	-0.0544
GATTCGGA	0.134
TGTTAACA	-0.00171
ACTTTTAG	0.101
